The target of this assay is SLY (suilysin) (Streptococcus suis, UniProt Q55996). The settings on record: 100 ng/mL SLY; 0-32 μg/mL baicalein; 37 °C.

Regarding `O=c1cc(-c2ccccc2)oc2cc(O)c(O)c(O)c12` [Baicalein], the hemolytic activity result was “hemolytic activity of purified SLY decreased significantly with elevated baicalein concentration”.

For the origin of these results see PMC8199331, “Baicalein Ameliorates Streptococcus suis-Induced Infection In Vitro and In Vivo” (International Journal of Molecular Sciences, 2021).
